Test results reported in the supplement of paper PMC12340968.
Each value is the number of isolates with that result; steps that no isolate showed are left empty. MIC of human isolates of monophasic S. Typhimurium, automated broth microdilution (BD Phoenix M50 panel; '<=' and '>' mark the panel's ends); higher = less susceptible. No active / inactive call per row; the paper applies CLSI M100 breakpoints.

Tested on: Salmonella enterica serovar 1,4,[5],12:i:- (monophasic Typhimurium) (256 isolates)
Assay: Isolates counted by MIC; Broth microdilution on BD Phoenix M50 Gram-negative panels.

SMILES	isolate count (MIC: 0.5 µg/mL)	isolate count (MIC: 1 µg/mL)	isolate count (MIC: 2 µg/mL)	isolate count (MIC: 8 µg/mL)	isolate count (MIC: ≤0.25 µg/mL)	isolate count (MIC: 4 µg/mL)	isolate count (MIC: 16 µg/mL)	also measured
CN(C)c1cc(NC(=O)CNC(C)(C)C)c(O)c2c1C[C@H]1C[C@H]3[C@H](N(C)C)C(O)=C(C(N)=O)C(=O)[C@@]3(O)C(O)=C1C2=O [tigecycline]	109	21	3	1	122	–	–	–
CC(C)(O/N=C(\C(=O)N[C@@H]1C(=O)N2C(C(=O)[O-])=C(C[n+]3ccccc3)CS[C@H]12)c1csc(N)n1)C(=O)O [ceftazidime]	44	1	24	2	105	17	14	isolate count (MIC: >16 µg/mL): 49
O=C1CN(/N=C/c2ccc([N+](=O)[O-])o2)C(=O)N1 [nitrofurantoin]	–	–	–	–	–	–	–	isolate count (MIC: 64 µg/mL): 7; isolate count (MIC: 128 µg/mL): 10; isolate count (MIC: ≤32 µg/mL): 239
C[C@@H](O)[C@H]1C(=O)N2C(C(=O)O)=C(S[C@@H]3CN[C@H](C(=O)Nc4cccc(C(=O)O)c4)C3)[C@H](C)[C@H]12 [ertapenem]	1	6	–	–	246	–	–	isolate count (MIC: >8 µg/mL): 3
C[C@@H](O)[C@H]1C(=O)N2C(C(=O)O)=C(S[C@@H]3CN[C@H](C(=O)N(C)C)C3)[C@H](C)[C@H]12 [meropenem]	–	–	–	2	–	–	–	isolate count (MIC: 0.25 µg/mL): 1; isolate count (MIC: >8 µg/mL): 1; isolate count (MIC: ≤0.125 µg/mL): 252
C[C@@H](O)[C@H]1C(=O)N2C(C(=O)O)=C(SCCNC=N)C[C@H]12 [imipenem]	70	2	1	–	179	1	–	isolate count (MIC: >8 µg/mL): 3
NCC[C@H](O)C(=O)N[C@@H]1C[C@H](N)[C@@H](O[C@H]2O[C@H](CN)[C@@H](O)[C@H](O)[C@H]2O)[C@H](O)[C@H]1O[C@H]1O[C@H](CO)[C@@H](O)[C@H](N)[C@H]1O [amikacin]	–	–	–	16	–	–	1	isolate count (MIC: >64 µg/mL): 3; isolate count (MIC: ≤4 µg/mL): 236
O=C(O)c1cn(C2CC2)c2cc(N3CCNCC3)c(F)cc2c1=O [ciprofloxacin]	83	22	11	–	–	–	–	isolate count (MIC: 0.03125 µg/mL): 84; isolate count (MIC: 0.0625 µg/mL): 9; isolate count (MIC: 0.125 µg/mL): 4; isolate count (MIC: 0.25 µg/mL): 35; isolate count (MIC: >2 µg/mL): 2; isolate count (MIC: ≤0.01563 µg/mL): 6
O=C(N[C@H](CO)[C@H](O)c1ccc([N+](=O)[O-])cc1)C(Cl)Cl [chloramphenicol]	–	–	–	10	–	–	3	isolate count (MIC: >32 µg/mL): 129; isolate count (MIC: ≤4 µg/mL): 114
CO/N=C(\C(=O)N[C@@H]1C(=O)N2C(C(=O)O)=C(COC(C)=O)CS[C@H]12)c1csc(N)n1 [cefotaxime]	10	2	2	–	138	1	7	isolate count (MIC: >16 µg/mL): 96
CN(C)[C@@H]1C(O)=C(C(N)=O)C(=O)[C@@]2(O)C(O)=C3C(=O)c4c(O)cccc4[C@@](C)(O)[C@H]3C[C@@H]12 [tetracycline]	–	–	16	–	–	2	–	isolate count (MIC: >16 µg/mL): 219; isolate count (MIC: ≤1 µg/mL): 19
CCC(C)CCCC(=O)N[C@@H](CCN)C(=O)N[C@H](C(=O)N[C@@H](CCN)C(=O)N[C@H]1CCNC(=O)[C@H]([C@@H](C)O)NC(=O)[C@H](CCN)NC(=O)[C@H](CCN)NC(=O)[C@H](CC(C)C)NC(=O)[C@@H](CC(C)C)NC(=O)[C@H](CCN)NC1=O)[C@@H](C)O (some centres not stated) [colistin]	243	–	–	5	–	8	–	–
CC1(C)S[C@@H]2[C@H](NC(=O)[C@H](N)c3ccccc3)C(=O)N2[C@H]1C(=O)O [ampicillin]	–	–	–	–	–	–	–	isolate count (MIC: >32 µg/mL): 215; isolate count (MIC: ≤2 µg/mL): 41
CO[C@@]1(NC(=O)Cc2cccs2)C(=O)N2C(C(=O)O)=C(COC(N)=O)CS[C@@H]21 [cefoxitin]	–	–	–	4	–	19	6	isolate count (MIC: 32 µg/mL): 4; isolate count (MIC: 64 µg/mL): 3; isolate count (MIC: >64 µg/mL): 9; isolate count (MIC: ≤2 µg/mL): 211
C[C@H]1[C@H](NC(=O)/C(=N\OC(C)(C)C(=O)O)c2csc(N)n2)C(=O)N1S(=O)(=O)O [aztreonam]	2	2	–	18	152	5	7	isolate count (MIC: >16 µg/mL): 70
